According to PMC4336329 (PLoS ONE, 2015):
Hit rate of the full screen: of about 310,000 compounds, about 2,200 (0.71%) showed an effect of 50% or more. The effect is printed as a negative number. The list shows a part of the results.

What follows are molecules tested against human ether-à-go-go-related gene (hERG) potassium channel (human, UniProt Q12809) (assay: primary screen, population patch clamp on CHO cells stably expressing hERG).
Chain of human ether-à-go-go-related gene (hERG) potassium channel (Q12809 whole entry, looked up): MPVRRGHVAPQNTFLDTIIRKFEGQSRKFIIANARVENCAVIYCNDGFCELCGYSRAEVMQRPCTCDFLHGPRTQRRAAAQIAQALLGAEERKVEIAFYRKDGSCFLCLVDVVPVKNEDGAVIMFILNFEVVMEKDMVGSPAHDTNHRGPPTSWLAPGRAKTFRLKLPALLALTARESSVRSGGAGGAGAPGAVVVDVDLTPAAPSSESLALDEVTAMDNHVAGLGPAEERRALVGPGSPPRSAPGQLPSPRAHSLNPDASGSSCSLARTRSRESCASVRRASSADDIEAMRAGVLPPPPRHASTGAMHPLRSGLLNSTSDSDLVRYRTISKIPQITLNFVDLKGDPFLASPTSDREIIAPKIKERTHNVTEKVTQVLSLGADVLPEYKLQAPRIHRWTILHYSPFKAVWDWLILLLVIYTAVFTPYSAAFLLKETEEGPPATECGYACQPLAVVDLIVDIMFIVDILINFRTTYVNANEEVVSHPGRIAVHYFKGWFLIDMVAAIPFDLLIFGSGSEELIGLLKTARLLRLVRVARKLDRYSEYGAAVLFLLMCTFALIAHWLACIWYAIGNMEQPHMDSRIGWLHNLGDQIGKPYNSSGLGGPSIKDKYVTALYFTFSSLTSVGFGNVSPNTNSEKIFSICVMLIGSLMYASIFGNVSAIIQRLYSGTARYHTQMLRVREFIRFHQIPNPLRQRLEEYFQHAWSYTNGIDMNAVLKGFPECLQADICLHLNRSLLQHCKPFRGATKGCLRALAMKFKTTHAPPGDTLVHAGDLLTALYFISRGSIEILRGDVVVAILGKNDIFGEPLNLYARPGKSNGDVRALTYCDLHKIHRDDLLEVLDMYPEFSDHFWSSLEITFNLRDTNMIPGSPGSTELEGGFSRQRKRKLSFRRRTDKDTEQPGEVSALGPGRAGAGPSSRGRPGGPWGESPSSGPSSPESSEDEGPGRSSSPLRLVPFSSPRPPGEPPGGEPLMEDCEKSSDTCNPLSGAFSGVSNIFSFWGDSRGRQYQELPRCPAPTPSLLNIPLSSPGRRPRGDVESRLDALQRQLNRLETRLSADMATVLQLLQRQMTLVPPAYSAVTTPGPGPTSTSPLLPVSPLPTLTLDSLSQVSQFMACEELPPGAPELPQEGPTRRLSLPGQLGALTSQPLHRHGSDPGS

| Structure (SMILES) | hERG current change (%, negative = inhibition) at 1uM |
| --- | --- |
| Cc1nn(C(=O)c2ccoc2C)c(N)c1-c1ccccc1 | 9.42% |
| Cc1ccc(Nc2nc(C(=O)NCc3ccco3)cs2)cc1 | 3.51% |
| O=C(NC1CCSc2ccccc21)c1cccc(Br)c1 (stereo not shown) | 22.1% |
| O=C(NCc1csc(-c2cccs2)n1)Nc1cccc(Cl)c1 | 11.6% |
| CCCNC(=O)c1ccc(SCC(=O)N(CC)CC)c([N+](=O)[O-])c1 | -5.96% |
| COCCCNC(=S)NC1CC2CCC(C1)N2Cc1ccccc1 (stereo not shown) | 3.4% |
| CN1CCN(S(=O)(=O)c2cccc(C(=O)Oc3cccc(C#N)c3)c2)CC1 | 11.8% |
| Brc1cccc(CNCc2cccs2)c1 | 4.26% |
| Cc1cccnc1-n1c(-c2ccccc2)nc2ccccc2c1=O | -0.9% |
| CCCCCCNC(=O)CC(NS(=O)(=O)c1ccc(OC)cc1)C(C)C (stereo not shown) | 5.11% |
| Cc1ccccc1NC(=S)NC1CC2CCC(C1)N2Cc1ccco1 (stereo not shown) | 6.48% |
| Cn1c(=O)n(C)c2cc(S(=O)(=O)NCCO)ccc21 | 4.65% |
| CCCN1C(=O)/C(=C\C=C2/C=CN(CC)c3ccccc32)SC1=S | 15.7% |
| CCOc1ccc(NC(=O)c2cccc3c2C(=O)N(CCOC)C3)cc1 | 13.2% |
| CC1(c2nnc(-c3cccc(Cl)c3)o2)CC(c2ccccc2)=NO1 (stereo not shown) | 3.04% |
| CCc1cccc(NC(=O)[C@@H]2CCCN2C2=NS(=O)(=O)c3ccccc32)c1 | -8.45% |
| O=C(OCc1ccccc1)C1CCCN1C(=O)c1ccccc1[N+](=O)[O-] (stereo not shown) | 0.863% |
| COc1ccc(C(=O)Nc2ccc(CN3CCCCC3)cc2)cc1 | -10.2% |
| Cc1cccc(C)c1NC(=O)COn1nnc2ccc(C(F)(F)F)cc21 | 9.25% |
| CCOc1ccc2nc(NC(=O)C3CCCO3)sc2c1 (stereo not shown) | -2.03% |
| O=C(NCCN=C1NS(=O)(=O)c2ccccc21)c1ccc2nccnc2c1 | 18.3% |
| COc1ccccc1CN1CC(C(=O)NCc2ncccc2C)CCC1=O (stereo not shown) | 2.01% |
| CC1CC(C)CN(C(=O)c2cc(-c3ccccn3)nc3ccccc23)C1 (stereo not shown) | 7.69% |

| Structure (SMILES) | hERG current change (%, negative = inhibition) at 1uM |
| --- | --- |
| Cc1cc(C(=O)N2CCCC(C(=O)c3cccc(C(F)(F)F)c3)C2)n[nH]1 (stereo not shown) | 8.04% |
| Cc1cc(C)n(-c2nc3ccccc3c(=O)n2OCc2ccc(F)cc2)n1 | 14.2% |
| CCOc1ccc(NC(=O)C2CC(=O)N(C(C)C)C2)cc1 (stereo not shown) | 14.3% |
| CCC(CC)C(=O)OCC(=O)Nc1cccc([N+](=O)[O-])c1 | 6.43% |
| Cc1ccc(-c2nnn(CC(=O)N(c3cccc(F)c3)C(C(=O)NC3CCCC3)c3ccco3)n2)o1 (stereo not shown) | 14.1% |
| C=Cn1c(N2CCOCC2)nc2c1c(=O)[nH]c(=O)n2C | 0.946% |
| COc1cc(O)c(CC=C(C)C)c(O)c1C(=O)CCc1ccc(O)cc1 | 8.18% |
| O=C(COc1ccccc1-c1ccccc1)N/N=C/c1cccc2ccccc12 | 3.51% |
| C/C(CCCO)=N/Nc1ccc([N+](=O)[O-])cc1[N+](=O)[O-] | 7.43% |
| COc1cccc2cc(C(N)=O)/c(=N/NC(=O)COc3ccc(Cl)cc3)oc12 | 14% |
| COC(=O)CSc1nnc(-c2ccccc2OC)o1 | 13% |
| O=C(Cc1ccccc1)Nc1cccc([N+](=O)[O-])c1 | 11.1% |
| O=C(CN1CCN(S(=O)(=O)N2CCCCCC2)CC1)Nc1ccc(F)cc1 | -75.1% |
| Cc1ccc(Cc2cnc(NC(=O)c3cccs3)s2)cc1 | 10.9% |
| COc1ccc(Cn2c(CO)cnc2SCC(=O)Nc2cc(C)on2)cc1 | 15.2% |
| CC1(C)Cc2c(sc3c2C2=NCCN2C=N3)CS1.Cl | -1.83% |
| CCOC(=O)c1sc2nc(C)nc(NCc3ccc(Cl)cc3)c2c1C | -89.6% |
| CC(=O)c1ccc(OCC(O)CN2CCN(S(=O)(=O)c3cccc(Br)c3)CC2)cc1 (stereo not shown) | 18.1% |
| COc1cc(CCC(=O)OCC(=O)N(CCC#N)c2ccccc2)cc(OC)c1OC | 9.93% |
| CC1(C)Cc2nc(NCCN3CCOCC3)c(C#N)cc2CO1 | -1.38% |
| CCSc1nnc(NC(=O)C2CCN(S(=O)(=O)c3ccccc3C(F)(F)F)CC2)s1 | 12.1% |
| CCOC(=O)c1cc(C)n(-c2ccc(OC)c(OC)c2)c1C | 2.44% |
| N=c1oc2ccccc2cc1C(=O)N/N=C/c1ccccc1 | 4.41% |

| Structure (SMILES) | hERG current change (%, negative = inhibition) at 1uM |
| --- | --- |
| COc1ccc(NS(=O)(=O)c2ccc(NC(=S)NCC3CCCO3)cc2)cc1 (stereo not shown) | 5.53% |
| CS(=O)(=O)N1CCN(C(=O)Cc2ccc([N+](=O)[O-])cc2)CC1 | 5.53% |
| COc1cc(OC)c(C(=O)Nc2ncn[nH]2)cc1OC | 7.08% |
| COc1ccc(NC(=S)Nc2ccc(Oc3ccccc3)cc2)cc1 | -7.22% |
| COc1ccc(-n2c(Cc3cc(=O)[nH]c(=O)[nH]3)nnc2SCC(=O)Nc2cc(C(F)(F)F)ccc2Cl)cc1 | 5.68% |
| S=C(NCCCN1CCOCC1)Nc1ccc(-c2nc3ccccc3[nH]2)cc1 | -6.21% |
| CCc1cc(=O)oc2cc(C)cc(OC(C)C(=O)NC(Cc3c[nH]c4ccc(O)cc34)C(=O)O)c12 (stereo not shown) | 3.52% |
| COc1ccc(C(=O)NCC2OCCc3ccccc32)c(O)c1 (stereo not shown) | 16.4% |
| Cc1ccc2c(C)c(C(=O)N(C)C(C)c3ccon3)oc2c1C (stereo not shown) | 9.32% |
| Cc1ccc(CNC(=O)C2CC(c3ccccc3F)=NO2)cc1 (stereo not shown) | 7.78% |
| O=C(COc1cc(Cl)ccc1Cl)Nc1ccc2c(c1)CCC2 | 16.1% |
| O=C(O)c1ccccc1NC(=O)C(c1ccccc1)c1ccccc1 | 9.28% |
| O=C(COC(=O)c1ccc([N+](=O)[O-])o1)c1ccccc1 | 12.9% |
| C#CCO[C@@H]1C[C@H](n2cnc3c(NC(=O)c4ccccc4)ncnc32)O[C@@H]1CO | 13.5% |
| CCC(=Cc1ccc(CC)cn1)CC | -2.51% |
| CS(=O)(=O)NN1C(=O)c2ccccc2NC1c1cccc2cccnc12 (stereo not shown) | 2.6% |
| Cc1ccc(Cl)cc1NC(=O)c1cc(NC(=O)CCCC(=O)O)ccc1N1CCCCC1 | 7.25% |
| FC(F)(F)c1ccc(NC2=NCCCS2)cc1 | 14% |
| CCCC(=O)Nc1ccc2c(c1)nc(CN1CCCCC1)n2C | 10.4% |
| CN1CCN(S(=O)(=O)c2cccc(C(=O)Nc3ccc(Br)cc3Br)c2)CC1 | 4.36% |
| O=C(c1ccc(Cl)cc1)n1c(NCc2ccccc2)n[nH]c1=S | 1.94% |
| Cc1c(-c2cccc(NC(=O)c3ccco3)c2)nc2ncccn12 | 6.7% |
| NNC(=O)CSc1nnc(-c2ccccc2)n1-c1ccccc1 | 10.3% |

| Structure (SMILES) | hERG current change (%, negative = inhibition) at 1uM |
| --- | --- |
| CCC(CC)c1nnc(NC(=O)C2CC(=O)N(C3CCCC3)C2)s1 (stereo not shown) | 8.17% |
| O=c1oc2ccc(Cl)cc2nc1/C=C(\O)c1ccco1 | 8.79% |
| CC(=O)N1CCN(C(=O)c2ccco2)CC1 | 24.9% |
| COc1ccc(-c2nc(-c3cccc(C)c3)[nH]c(=O)c2C#N)cc1 | 2.95% |
| CS(=O)(=O)N(CCc1ccccc1)CC(=O)N1CCCCC1 | 2.81% |
| COc1ccc(S(=O)(=O)N2CCCCC2)cc1NC(=O)C1CCCO1 (stereo not shown) | 2.94% |
| CSc1cccc(NC(=O)CN(C)S(=O)(=O)c2ccccc2)c1 | 14.7% |
| O=C(CNC(=O)c1ccco1)N/N=C/c1ccc(C(=O)O)cc1 | 10.7% |
| COc1cccc(/C=C/C(=O)c2ccc[nH]2)c1 | 11.1% |
| CCC(c1nnnn1Cc1cccs1)N1CCN(C(=O)c2ccco2)CC1 (stereo not shown) | -14.1% |
| CCOc1ccc(NC(=O)CSc2nncn2C)cc1 | 15.1% |
| Cc1ccc(Nc2nc(N3CCN(C)CC3)nc(N)c2[N+](=O)[O-])cc1C | -2.03% |
| CCN(CC(=O)NCc1cccs1)C(=O)c1ccc(NS(=O)(=O)c2cccc([N+](=O)[O-])c2)cc1 | -0.0892% |
| Cn1c(CNS(=O)(=O)c2ccc(Cl)cc2)n[nH]c1=S | 15.3% |
| COC(=O)c1cc2c(ccn2C)n1C | 6.95% |
| CN(Cc1ccc(-n2cccn2)cc1)Cc1nc(-c2cnccn2)no1 | -4.67% |
| COc1cccc(S(=O)(=O)Nc2cccnc2)c1 | 14.3% |
| CN(C)CCN(C(=O)C1CCN(S(=O)(=O)c2cccs2)CC1)c1nc2ccc(F)cc2s1.Cl | 7.56% |
| Cc1ccc(OCCCC(=O)Nc2ccc3c(c2)OCCO3)cc1 | 4.94% |
| O=S(=O)(/C=C/c1ccccc1)Nc1ccc2c(c1)OCO2 | -3.58% |
| CCCCC(=O)Nc1ccc(C(=O)NCc2ccncc2)cc1 | 13.6% |
| CCCOc1ccc(OC(=O)c2ccc(Br)o2)cc1 | 10.3% |
